From US20220370434A1, “METHODS AND COMPOSITIONS FOR TREATING CANCER” (City of Hope, priority 2019, published 2022) come the findings set out here.

For series [1], the system named is PD-L1 and PD-L2 in NOMO-1 AML cells. Briefly: Expression of PD-L1 and PD-L2 upon FTO inhibition. It counts as cell-based.
The next series concerns IDH-mutant AML cells. Put plainly: IDH-mutant AML cells from patients resistant to IDH inhibitors.
The next series has as its system NOMO-1 cells. Briefly: Combination with DNMT inhibitors, cell proliferation. It counts as cell-based. The note with it: 128 nM formula (I), 256 nM formula (II), 48 hours; for effect with DAC on cell growth: 100 nM DAC; for effect with AZA on cell growth: 1000 nM AZA. The protocol:
(§1) Cell proliferation was measured. […] This experiment was repeated with NB4 cells. […] Synergistic inhibitory effect of FTO inhibitor together with DNMT inhibitor on cell proliferation was observed.

In series [2] the test system is primary murine MLL-AF9 (MA9) leukemic cells. Briefly: Colony forming assay. The following applies: 10 nM formula (I) + 20 nM DAC; serial colony forming assays.
Series [3] relates to TKI-resistant KASUMI-1 and MV4-11 AML cell lines. Briefly: TKI resistance in TKI-resistant AML cell lines.
The next series can be described thus: Drug toxicity in vivo. The following applies: for H&E staining versus control / complete blood count (WBC, RBC, PLT) versus control / whole body weight and weights of organs (heart, liver, spleen, lung, kidney) versus vehicle control: 5 and 20 mg/kg/day, once every other day for 10 days; for overall safety: at least at a dose 4-fold higher than the efficacious dose.

The subject of another series is NB4 cells. Put plainly: Combination with DNMT inhibitors, cell growth. The format is cell-based. The note with it: 48 hours, 256 nM formula (IIa); for effect with DAC on cell growth: 100 nM DAC; for effect with AZA on cell growth: 1000 nM AZA. The protocol:
as §1
NB4 AML cells were treated with 256 nM compound of formula (IIa), 1000 nM AZA, 100 nM DAC, or their combinations for 48 hours. Effects of compound of formula (IIa), DAC, AZA and combined effects of compound of formula (IIa) with either DAC or AZA on […] AML cell growth was measured (FIG. 9D).

A further series deals with GBM cells. Put plainly: Sensitization of GBM cells to temozolomide.
Series [4] concerns murine FLT3ITD/NPM1mut leukemic cells. Put plainly: Colony forming assay. The note with it: 10 nM or 50 nM; b415.
The next series relates to MA9.3ITD AML cells. Put plainly: Xenograft AML mouse model with MA9.3ITD cells. The note with it: mouse, in vivo.

Consider `C(=N\NC1=NCCN1)/c1c2ccccc2c(/C=N/NC2=NCCN2)c2ccccc12` [formula (I)], for which the “PD-L1 and PD-L2 levels” value in [1] was “down-regulation of PD-L1 and PD-L2 levels”. In the series with IDH-mutant AML cells, the “effect with IDH inhibitor” value was “synergistic effect” and the sensitivity to treatment result was “sensitive”. For the same compound, in the series with NOMO-1 cells, the “effect with DAC on cell growth” value was “synergistic inhibitory effect on cell growth” and the “effect with AZA on cell growth” value was “synergistic inhibitory effect on cell growth”. For the same compound, the “effect with DAC on colony forming activity” value in series [2] is given as “synergistic effect”. For the same compound, the TKI resistance result in series [3] is given as “overcome TKI resistance”. For the same compound, in the series “Drug toxicity in vivo”, the “H&E staining versus control” value is given as “no difference between the groups”; the “complete blood count (WBC, RBC, PLT) versus control” value is given as “did not show significant differences”; the “whole body weight and weights of organs (heart, liver, spleen, lung, kidney) versus vehicle control” value is recorded as “No significant difference”; the overall safety result is on record as “safe”. In addition, in the series on NB4 cells, the “effect with DAC on cell growth” value is reported as “synergistic inhibitory effect on cell growth” and the “effect with AZA on cell growth” value is “synergistic inhibitory effect on cell growth”. The “sensitization to temozolomide (TMZ)” value in the series on GBM cells was “sensitize GBM cells”.

With `Cc1c(-c2ccc(-c3ccccc3F)cc2)nc2ccc(F)cc2c1C(=O)O` [formula (II)], in [1], the “PD-L1 and PD-L2 levels” value is “down-regulation of PD-L1 and PD-L2 levels”. In the series on IDH-mutant AML cells, the “effect with IDH inhibitor” value is “synergistic effect” and the sensitivity to treatment entry is reported as “sensitive”. Also, in the series on NOMO-1 cells, the “effect with DAC on cell growth” value was “synergistic inhibitory effect on cell growth” and the “effect with AZA on cell growth” value is listed as “synergistic inhibitory effect on cell growth”. Moreover, the colony forming activity result in [4] is listed as “dose dependent decreased colony forming activity”. The TKI resistance result in [3] is on record as “overcome TKI resistance”. For the same compound, in “Drug toxicity in vivo”, the “H&E staining versus control” value is “no difference between the groups”; the “complete blood count (WBC, RBC, PLT) versus control” value was “did not show significant differences”; the “whole body weight and weights of organs (heart, liver, spleen, lung, kidney) versus vehicle control” value was “No significant difference”; the overall safety result was “safe”. Moreover, in the series with NB4 cells, the “effect with DAC on cell growth” value is recorded as “synergistic inhibitory effect on cell growth” and the “effect with AZA on cell growth” value was “synergistic inhibitory effect on cell growth”. The “anti-leukemic effects compared with FB23-2 (survival, spleen weight, engraftment)” value in the series with MA9.3ITD AML cells was “much stronger anti-leukemic effects than FB23-2”. Besides, the “sensitization to temozolomide (TMZ)” value in the series with GBM cells is “sensitize GBM cells”.
